The list shows a part of the results. The full chains were built here from the parent and the listed change. Values near 0.05 are background.
B1: TEV protease; numbered along this chain (parent)
chain: MGESLFKGPRDYNPISSSICHLTNESDGHTTSLYGIGFGPFIITNKHLFRRNNGTLVVQSLHGVFKVKDTTTLQQHLVDGRDMIIIRMPKDFPPFPQKLKFREPQREERICLVTTNFQTKSMSSMVSDTSCTFPSGDGIFWKHWIQTKDGQCGSPLVSTRDGFIVGIHSASNFTNTNNYFTSVPKNFMELLTNQEAQQWVSGWRLNADSVLWGGHKVFMVKPEEPFQPVKEATQL

Variants of: B1
Test: raw area under fraction-flipped curve 0-4 h after induction (AUC4h, not background-subtracted), DNA-recorder readout of cleavage of the substrate (dimensionless); higher = more cleavage of the substrate by the protease variant
Settings: temperature: 34 °C; time window: 0-4 h after rhamnose induction
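Further: Bxb1 expression induced with 0.2% (w/v) L-rhamnose at OD600 near 0.5, cultures sampled hourly, flipped fraction per protease–substrate barcode pair counted by paired-end Illumina sequencing.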

| Variant | area with substrate ENLYFQC | area with substrate ENLYFQE | area with substrate ENLYFQG | area with substrate ENLYFQH | area with substrate ENLYFQK | area with substrate ENLYFQL | area with substrate ENLYFQM | area with substrate ENLYFQN | area with substrate ENLYFQQ | area with substrate ENLYFQR | area with substrate ENLYFQS | area with substrate ENLYFQT | area with substrate ENLYFQV | area with substrate ENLYFQW | area with substrate ENLYFQY | area with substrate ENLYFQD | area with substrate ENLYFQF | area with substrate ENLYFQI | area with substrate ENLYFQP |
| --- | --- | --- | --- | --- | --- | --- | --- | --- | --- | --- | --- | --- | --- | --- | --- | --- | --- | --- | --- |
| V78W | 0.0855 | 0.0525 | 0.0667 | 0.0694 | 0.0554 | 0.0564 | 0.0609 | 0.0668 | 0.0476 | 0.0594 | 0.0729 | 0.0554 | 0.0479 | 0.0516 | 0.0645 | – | – | – | – |
| S121W | 0.106 | – | 0.0924 | 0.0934 | 0.0699 | 0.0611 | – | 0.0554 | – | 0.0237 | 0.104 | 0.0747 | – | 0.072 | – | 0.0781 | 0.0774 | 0.065 | 0.0598 |
| S121H | 0.122 | – | 0.0887 | – | 0.0637 | 0.0674 | 0.0795 | 0.0736 | 0.0861 | 0.0597 | 0.112 | 0.0638 | – | – | 0.0917 | 0.0725 | – | 0.0619 | 0.0476 |
| L156H | 0.0708 | – | – | 0.066 | 0.0528 | 0.0597 | 0.045 | 0.0611 | – | 0.0517 | 0.0591 | 0.0558 | – | 0.0551 | – | 0.0619 | – | – | 0.0525 |
| K98C | 0.1 | 0.0614 | 0.0848 | 0.0852 | 0.0653 | 0.0629 | – | 0.0796 | 0.081 | 0.0608 | 0.0977 | 0.0628 | – | – | 0.0762 | – | – | 0.0596 | – |
| K98A | 0.126 | 0.0836 | 0.1 | 0.0872 | – | – | – | 0.0882 | – | 0.0652 | 0.102 | 0.0718 | 0.0559 | – | – | – | – | 0.062 | 0.0596 |
| I86Q | 0.0425 | – | – | 0.027 | – | 0.042 | 0.12 | – | 0.0358 | 0.0372 | 0.0442 | 0.0474 | 0.037 | 0.0273 | 0.0525 | 0.0461 | 0.0561 | 0.0406 | – |
| L99D | 0.0692 | – | – | 0.0508 | 0.0447 | 0.0603 | 0.0691 | 0.0595 | – | 0.0477 | 0.0698 | 0.0523 | 0.0384 | – | 0.0321 | 0.0687 | – | 0.0572 | 0.0437 |
| T70E | 0.052 | 0.0591 | – | 0.0892 | 0.0424 | 0.0528 | 0.0448 | 0.063 | 0.0507 | 0.0565 | 0.0734 | – | – | 0.0472 | – | – | 0.0602 | – | – |
| I84E | 0.057 | 0.057 | 0.0413 | 0.0623 | 0.0394 | 0.049 | 0.0639 | 0.0547 | – | 0.0489 | 0.0573 | 0.0524 | 0.0546 | 0.0463 | – | 0.0516 | 0.0533 | – | 0.0566 |
| M88A | 0.11 | – | 0.0984 | – | 0.0497 | 0.0668 | 0.0992 | 0.0826 | 0.0718 | 0.0601 | 0.096 | 0.067 | – | 0.058 | 0.0402 | 0.0691 | 0.0769 | 0.0535 | – |
| P134G | 0.0496 | – | – | 0.117 | 0.06 | 0.0712 | 0.0732 | 0.0651 | 0.0626 | 0.0298 | 0.0836 | 0.0647 | – | 0.0545 | – | 0.0679 | – | 0.0576 | 0.0526 |
| S154W | 0.0469 | – | – | – | 0.0605 | 0.0624 | – | 0.0467 | 0.056 | 0.0636 | 0.07 | 0.0699 | – | 0.0587 | – | 0.0589 | – | 0.0578 | – |
| S154H | 0.0944 | – | 0.185 | – | 0.0551 | 0.0575 | 0.0778 | 0.0674 | – | 0.0741 | 0.0905 | 0.0521 | 0.0679 | 0.0627 | 0.0644 | – | 0.0646 | – | 0.0465 |
| S124V | 0.116 | 0.0679 | 0.0965 | 0.0876 | 0.0555 | 0.063 | 0.0837 | 0.075 | – | 0.0502 | 0.0947 | 0.0635 | – | 0.059 | 0.0729 | 0.0495 | 0.0428 | 0.055 | 0.0405 |
| T132A | 0.108 | 0.0457 | 0.122 | 0.0815 | 0.0523 | 0.0537 | 0.0752 | 0.0681 | 0.086 | 0.0665 | 0.108 | 0.0754 | 0.0499 | 0.0649 | 0.0964 | 0.0497 | 0.0536 | – | 0.0606 |
| V126A | 0.131 | – | 0.108 | 0.0891 | 0.0285 | 0.0522 | 0.104 | 0.0776 | – | 0.0517 | 0.108 | 0.0553 | – | 0.0668 | – | 0.0538 | 0.0825 | 0.0581 | 0.0431 |
| P104G | 0.0577 | – | – | 0.047 | 0.0547 | 0.0481 | 0.0453 | 0.0465 | 0.0261 | 0.0475 | 0.0527 | 0.0531 | 0.0597 | – | 0.049 | – | 0.053 | 0.0539 | 0.0446 |
| Q146T | 0.0887 | 0.0602 | 0.0892 | – | 0.0571 | 0.0476 | 0.0921 | 0.0808 | – | 0.0332 | 0.103 | 0.0427 | 0.083 | 0.0679 | 0.0845 | 0.0574 | 0.0597 | 0.0581 | – |
| R109Q | 0.112 | – | 0.103 | – | 0.0702 | 0.0866 | 0.101 | 0.0751 | – | 0.0632 | 0.0983 | 0.0717 | 0.0557 | 0.0728 | – | 0.0646 | 0.0768 | 0.0606 | 0.062 |
| T114Y | 0.0896 | – | – | – | 0.0603 | 0.0566 | – | 0.0848 | – | 0.0647 | 0.0967 | 0.0421 | – | 0.0728 | – | 0.0714 | – | 0.0594 | – |
| Q75R | 0.0615 | – | 0.0736 | 0.0502 | – | 0.0616 | – | – | – | 0.0547 | 0.0588 | 0.0669 | 0.0595 | 0.0508 | – | 0.0591 | 0.0456 | 0.0634 | – |
| S123I | 0.114 | – | 0.102 | – | 0.0693 | 0.0651 | 0.0858 | 0.0815 | – | 0.0576 | 0.101 | 0.0606 | – | 0.0564 | – | 0.0837 | 0.069 | 0.0623 | 0.0697 |
| T147Q | 0.0572 | 0.059 | 0.0601 | 0.061 | 0.0439 | 0.0534 | 0.0378 | 0.0603 | 0.0597 | 0.0581 | 0.0687 | 0.0523 | 0.0695 | 0.0623 | 0.0577 | – | 0.0588 | – | – |
| W141P | 0.0469 | 0.0589 | 0.0557 | 0.0491 | 0.0565 | 0.0684 | 0.0751 | 0.0524 | – | – | 0.0548 | 0.055 | – | 0.0489 | 0.0552 | 0.0517 | 0.0639 | 0.0459 | – |
